# This sample is rich in variants without activity.
# B1: TPR 5TU (parent)
# chain: GGAUCUUCUCGAUCUAACAAAAAAGACAAAUCUGCCACAAAGCUUGAGAGCAUCUUCGGAUGCAGAGGCGGCAGCCUUCGGUGGCGCGAUAGCGCCAACGUUCUCAACUAUGACACGCAAAACGCGUGCUCCGUUGAAUGGAGUUUAUCAUG
# Variants of: B1
# Assay: polymerase ribozyme fitness, log enrichment relative to wild type (log ratio); higher = more active; in vitro selection for triplet polymerase activity
# How it was run: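 Frozen incubation at −7 °C formed the core of a single, triplicate in vitro selection round applied to PCR-built, transcribed mutant libraries of each subunit of a heterodimeric triplet polymerase ribozyme. Extended constructs were gel-excised, captured with streptavidin beads and amplified by RT-PCR, and input and output libraries were Illumina-sequenced with a filter of ≥10 input reads and ≥1 read per output. Fitness is the logarithm of genotype enrichment relative to wild-type enrichment, with inverse-variance-weighted replicate averaging, and the logarithm is base 2.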
row,Variant,polymerase ribozyme fitness (log ratio)
1,GGAUCUUCUCGAGCUAGCAAAAAAGACAAAUCUGCCACAAAGCUGGAGAGCAUCUUCGGAUGCAGAGGCGGCAGCCUUCGGUGGUGCGAUAGCGCCAACGUUCUCAACUAUGACACGCAGAACGCGUGCUCCGUUGAAUGCAGUUUAUCAUG,≤ -4.2
2,GGAUCUUCUCGAGCUAACAACAAAGACAAAUCUGCCACAAAGCUUGAUAGCAUCUUCGGAUGCAGAGGCGGCAGCCUUCGGUGGCGCGAUAGCGCCAACGUUCUCAACUAUGACACGCAAAACGCGUGCUCCGUUGAAUGGAGUUUAUCAUG,-1.33
3,GGAUCUUCUCGAGCUAACAAUUAAGACAAAUCUGCCACAUAGCUUGAGAGCAUCUUCGGAUGCAGAGGCAGCAGCGUUCGGUAGCGCGAUAGCGCCAACGUUCUCAACUAUGACACCCACAACGCAUGCUCCCUUGAAUGGAGUUUAUCAUG,≤ -4.2
4,GGAUCUUCUCGAGCUAACAAAAAUGACAAAUCUGCCACAAAGCUUGAGAGCAUCUUCGGAUGCAGAGGCGGCAGCCUUCGGUGGAGCGAUAGCGCCAACGUUCUCAAAUAUGACACGCAAAACGCGUGCUCCGUUGAAUCGAGUUGUUCAUG,≤ -4.2
5,GGAUCUUCUCGAGCUAACGAAAAACACAAAUCUGCCACAAAGCUUGAGAGCAUCUUCGGAUGCAGAGGCGGCAGCCUUAGGUGGCGCGAUAGCGCCAACGUUCUCAACUAUGACACGCAAAACGCGUGCUGCGUUGAAUGGAGUGUAUCAUG,≤ -4.2
6,GGAUCUUCUCGAGCUAACAAAAUAGACAAAUCUGCCACAAAGCUUGAGAGCAUCUUCGGAUGCAGAGGCGGCAGCCUUCGGUGGCGGGAUAGCGCCAACGUUCUCAACUAUGACACGCAAAACGCGUGCUCCGUUGAAUGGAGUUUAUCAUG,≤ -4.2
7,GGAUCUUCUCGAGCUAACAAUAAAGACAAAUCUGCCACAAAGCUUGAGAGCAUGUUCAGAUGCAGAGGCGGCAGCCUUCGGUGACGCGAUAGCGCCAACGUUCUCAACUAUGACACGCAAAACGCGUGCUCCGUUGAAUGGAGUUUAUAAUG,≤ -4.2
8,GGAUCUUCUCGAGCUAACACAAACGAGAAAUCUGCCACAAAGCUUGAGAGCAUCUUCGGCUGCAGAGGCGGCAGCCUUCGGUGGCGCGAUAGAGCCAACGUUCGCAACUAUGACAGGCAAAACGCUUGCUCCGUUGAAUGUAGUUUAUCAUG,≤ -4.2
9,GGAUCUUCUCGACCUAACAAAAAAGACAAAUCUGCCACAAAGCUUGAGAGCAUCUACGGAUGCAGAGGCGGCAGCCUUCGGUGGCGCGAUAGUGCCAACGUGCUCCACUAUGACACACUAAACGCGUGCUCCGUUGAAUGGAGUUUAUCAUG,≤ -4.2
10,GGAUCUUCUCGAGCUUACAAAAAAGACAAAUCUGCCACAAAGCUUGAGAGCAUCUUCGGAUGCAGAGACGGCAGCCCUCGGUGGCGCGAUAGCGCCAACGUUCUCAACUGUGACACGCAAAACGCGUGCUCCGUUGAAUGGAGUUUAUCAUG,≤ -4.2
11,GGAUCUUCUCGAGCUAACAAUAAAGACAAAUGUGCCACAAAGCUUGAGAGCAUCUUCGGAUGCAGAGGCGGCUGCCUACGGUGGCGAGAUAGCGCCAACGUUCUCAACUAUGACACGAAAAACGCGUGCUCCGUUGAAUGGAGUUUAUCAUG,≤ -4.2
12,GGAUCUUCUCGACCUAACAAAAAAGACAAAUCUGCCACAAAGCUUGAGAGCAGCUUCGGAUGCAGAGGCGGCACCCUUCGGUGGCGCGAUAGCGCCAACGUUCUCAACUAUGACACGCAAAACGCGUGCUCCGUUGAAUGGACUUUAUCAUG,≤ -4.2
13,GGAUCUUCUCGAGCUAACUAAAAAGACAAAUCUGCCAUAAAGCUUGAGAGCAACUUCGGAUGCAGUGGCGGCAGCCUUCGGUGGCGCGACAGCGCCAACGUUCUCAACUAUGACACGCAAAACGCGUGCUCCGUUGAAUGGAGUUUAUCAUG,≤ -4.2
14,GGAUCUUCUCGACCUAACAAAAAAGACAAAUCUGCCACAAAGCUUGAGAGCAUCUUCGGAUGCAGAGGCGGCAGCCUUCGGUGGCGCGAGAGCGCCAACGUUCUCAACUAUGACAAGCAAAACGCGUGCUCCGUUGAAUGGAGUUUAUCAUG,-4.13
15,GGAUCUUCUCGACCUAACAAAAAAGACAAAUCUGCCACAAAGCUUGAGAGCAACUUCGGAUGCAGAGGCGGCAGCCUUCGGUGGCGCGAUUGCGCCAACGUUCUCAUCUAUGACACGCAAAACGCGUGCUCCGUUGAAUGGAGUUUAUCAUG,≤ -4.2
16,GGAUCUUCUCGAGCUAACAAAAGAGACAAAUCUGCCACAAAGCUGGAGAGCAUCUUCGGAUGCAGAGGCGGCAGCCUUCGGUGGCUCUAUAGCGCCAACGUUCUCAAUUAUGACACGCAAAACGCGUGCUCCGUUGAAUGGAGUUUAUCAUG,≤ -4.2
17,GGAUCUUCUCGAGCUUACAAAAAAGACAAAUCUGCCACAAAGCUUGAGAGCAUCUUCGGAUGCAGAGGCGGCAGCCUUCGGUGGUGCGAUAGCGCCAACGUUCUCAACUAUGACACGCAAAACGCGUGCUCCGUUGAAUGGAGUGUAUCAUG,-3.16
18,GGAUCUUCUCGACCUAACAAAAAAGACAAAUCUGCCACAAAGCUUGAGAGCAUCUUCGGAGGCAGAGGCGGCAGCCUUCGGUGACGCGAUGGCGCCAACGUUCUCAACUAUGACACGCAAAACGCGUGCUCCGUUGAAUGGAGUUUAUCAUG,-3.86
19,GGAUCUUCUCGAGCUAACAAGAAAGACAAAUCUGCCACAAAGCUUGAGAGCAUCUUCUUAUGCAGAGGCGACAGCCUUCGGUGGCGCGAUAGCGGCCACGUUCUCAACUAUGACACGCAAAACGCGUGCUCCGUUGAAGGGAGUUUAUCAUG,≤ -4.2

# Reference: the RNAGym collection of RNA variant scans (doi:10.1073/pnas.2313332121)
